# Reference: PubChem BioAssay AID493208 (National Center for Advancing Translational Sciences (NCATS), 2011)
# About 340 (0.77%) of roughly 44,000 compounds were called active. This list was built around the results that the source calls inconclusive (neither active nor inactive); the mix of calls is not that of the screen. The call rests on the fitted dose curve; in most records, active means well fitted inhibition curve with a large enough effect; inconclusive means small, poorly fitted or top-dose-only effect; inactive means flat fitted curve, though single readings scatter. No potency is given beside an inconclusive call; the fits are too rough.
# Experiment: Acumen qHTS Assay for Inhibitors of the mTORC1 Signaling Pathway in MEF (Tsc2-/-, p53-/-) Cells: Sytravon; further: nearly all actives have a fitted effect of over 50% in size;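 on activity change, negative = inhibition: plate controls were DMSO for no effect and rapamycin for full effect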
# Conditions: phospho-rpS6 immunofluorescence/PI, 24 h; series mostly up to 38.3 µM; activity change, negative = inhibition: at the top concentration
# How it was run: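 Readout is phospho-S6 Alexa 488 signal normalized to PI per well, reported as % active cells with thresholds set from rapamycin (7.5 nM) and DMSO controls. Cells: Tsc2-/-, p53-/- MEFs, 24 hrs compound at 37 C; PI cell number serves as viability.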
# Potency means the concentration at half of the fitted maximal effect; tags describe the fitted curve by direction and shape.
SMILES,Potency,"activity change, negative = inhibition"
CCN(CC)CCNC(=O)Nc1ccc2c(c1)N(Cc1ccccc1)C(=O)c1ccccc1S2,"inconclusive [falling, single point]",
CCCCOc1cccc(C(=O)N(Cc2cccs2)c2ccc(OC)cc2)c1,"inconclusive [falling, partial curve]",
CCc1ccc(S(=O)(=O)N(C(=O)Oc2ccccc2)c2ccc3oc(C)c(C(=O)OC)c3c2)cc1,"inconclusive [falling, partial curve]",
Cc1cccc(Cc2c(C)nc3nc(SCC(=O)NCc4ccccc4)nn3c2C)c1,"inconclusive [falling, partial curve, poor fit]",
CCOc1ccccc1NC(=O)Cn1ccn(Cc2ccc(C)cc2)c(=O)c1=O,"inconclusive [falling, partial curve]",
CCc1ccc(-n2c(=O)c3c4c(sc3n(CC(=O)c3ccc(Cl)cc3)c2=O)CCC4)cc1,"inconclusive [falling, single point]",
Cn1ncc2nc(SCC(=O)Nc3ccc(Br)cc3F)n(Cc3ccccc3)c(=O)c21,"inconclusive [falling, single point]",
Cc1ccc2nc(N(Cc3cccnc3)C(=O)CCS(=O)(=O)c3ccccc3)sc2c1,,inactive: -4.67%
Cc1ccc(CN(Cc2ccco2)C(=O)COc2ccc(C(C)C)cc2)cc1,"inconclusive [falling, single point]",
CCOc1ccc(CNCc2c(C(=O)O)n(Cc3ccc(C)cc3)c3cc(C)ccc23)cc1,"inconclusive [falling, single point]",
Cc1ccccc1Nc1ncnc2c1cnn2C,"inconclusive [falling, single point]",
COc1ccc(S(=O)(=O)NCC(c2ccco2)S(=O)(=O)c2cccs2)cc1C (centres undefined),,inactive: -1.25%
CCOC(=O)c1ccc(NC(=O)c2c(NCc3cccs3)sc3c2CCCC3)cc1,,inactive: -12.1%
Cc1cc(C)cc(NC(=O)C2CCCN(C(=O)c3cnn(-c4ccccc4)c3-n3cccc3)C2)c1 (centres undefined),"inconclusive [falling, partial curve]",
CCc1ccc(NC(=O)[C@H](CSCc2ccccc2)N2Cc3ccccc3C2=O)cc1,,inactive: -3.76%
COc1cc2nc(Nc3cccc(C)c3)nc(N)c2cc1OC,"inconclusive [falling, partial curve, poor fit]",
COc1ccc(NC(=O)c2sc3nc4c(cc3c2N)CCCCCC4)cc1,"inconclusive [falling, partial curve, poor fit]",
Cc1ccccc1NC(=O)CSc1nc(-c2ccccc2)cn1-c1ccccc1F,"inconclusive [falling, partial curve, poor fit]",
CCCNC(=O)c1ccccc1NC(=O)c1nsc2ccccc12,"inconclusive [falling, partial curve, poor fit]",
CCOc1ccc(CNC(=O)c2ccccc2NC(=O)c2nsc3ccccc23)cc1,"inconclusive [falling, partial curve, poor fit]",

SMILES,Potency,"activity change, negative = inhibition"
Cc1ccc(-c2nc3c(C)cccn3c2Nc2ccccc2C)s1,"inconclusive [falling, full curve, poor fit]",
Cc1ccc(C)c(N2CCN(C(=O)c3cc4c(=O)n(Cc5cccs5)ccc4nc3C)CC2)c1,"inconclusive [falling, partial curve, poor fit]",
Cc1ccc(C)c(CN2C(=O)c3ccccc3S(=O)c3ccc(C(=O)N(C)Cc4ccccc4)cc32)c1 (centres undefined),,inactive: -12.5%
COC(=O)CSc1nnc2n(-c3ccccc3)c(=O)c3c4c(sc3n12)COC(C(C)C)C4 (centres undefined),"inconclusive [falling, single point]",
CCC(=O)N1CCc2cc(S(=O)(=O)N(C)c3cccc(C)c3)ccc21,,inactive: -10.8%
CCOc1ccccc1N1CC(c2nc3ccccc3n2CCOc2ccc(C(C)(C)C)cc2)CC1=O (centres undefined),"inconclusive [falling, single point]",
COCCn1c(CNC(=O)c2cc(OC)c(OC)c(OC)c2)nc2cccnc21,,inactive: 0.0993%
COC(=O)c1ccc(NC(=O)c2c(NCc3ccc(OC)c(OC)c3)sc3c2CCCC3)cc1,"inconclusive [falling, partial curve, poor fit]",
CCCN(C(=O)Cn1nc(Cc2ccncc2)c2ccccc2c1=O)c1ccccc1C,,inactive: -9.81%
COc1cccc(CNC(=O)c2ccc(CS(=O)Cc3ccc(Cl)cc3)o2)c1 (centres undefined),"inconclusive [falling, partial curve]",
CCN1CCOC(=O)C1CC(=O)Nc1cc(Cl)ccc1OC (centres undefined),"inconclusive [falling, single point]",
O=C(NCc1nc2ccccc2n1Cc1ccccc1Cl)c1ccccc1,,inactive: -1.87%
N#C/C(=C\c1ccccc1F)c1nc2ccccc2c(=O)[nH]1,,inactive: 7.42%
O=C(Nc1ccc(Cl)c(C(F)(F)F)c1)c1cc2nc(-c3ccc4c(c3)OCO4)cc(C(F)(F)F)n2n1,,inactive: -2.82%
Cc1cc(Nc2cccc(C(F)(F)F)c2)nc2ccc(NC(=O)c3cncc(Br)c3)cc12,,inactive: -28.4%
COCCCNC(=O)Cn1c(=O)n(-c2ccc(Cl)cc2)c(=O)c2c3c(sc21)CCCCC3,"inconclusive [activator, partial curve, poor fit]",
Cc1nc(N2CCCC2)ncc1C(=O)NCc1ccccc1Cl,"inconclusive [activator, single point]",
CCOC(=O)c1cc2c(=O)n3ccccc3nc2n(CC2CCCO2)c1=NC(=O)c1cc(C)cc(C)c1 (centres undefined),,inactive: -5.53%
Cc1[nH]c2ccccc2c1C1(O)C(=O)N(Cc2ccc(Cl)cc2)c2ccccc21 (centres undefined),"inconclusive [falling, partial curve]",
Cc1ccc(C2C=C(c3ccc(F)cc3)Nc3nc(CCCO)nn32)cc1 (centres undefined),"inconclusive [falling, single point]",

SMILES,Potency,"activity change, negative = inhibition"
CCSc1ncc(Cl)c(C(=O)N(Cc2ccccc2)Cc2ccco2)n1,,inactive: -3.04%
COc1ccccc1N1CCN(CCCNC(=O)c2cnn(-c3ccc(C)c(C)c3)c2C2CCN(C(=O)OC(C)(C)C)CC2)CC1,"inconclusive [falling, single point]",
CCCCS(=O)(=O)c1oc(-c2ccc(F)cc2)nc1S(=O)(=O)c1ccccc1,active: 2.93 µM,
COc1ccc(NC(=O)CSc2nc3ccccc3n2CC(=O)Nc2cccc(C)c2C)cc1,"inconclusive [falling, single point]",
Cc1ccc(CCNC(=O)c2ccc(Cn3c(=O)c4cccn4c4cccnc43)cc2)cc1,"inconclusive [falling, single point]",
Cc1ccc(Cl)cc1N1CCN(C(=O)c2cnn(-c3ccc(Cl)cc3)c2C2CCNCC2)CC1,"inconclusive [falling, single point]",
Cc1ccccc1Cn1cc(NC(=O)c2cc(-c3ccc(Cl)cc3)on2)cn1,"inconclusive [falling, full curve, poor fit]",
O=C(CSC1=Nc2ccccc2C2=NC(Cc3ccccc3)C(=O)N12)Nc1ccccc1 (centres undefined),,inactive: 0%
CN(Cc1ccccc1)S(=O)(=O)c1ccc(F)c(C(=O)Nc2cc(Cl)cc(Cl)c2)c1,,inactive: 13.6%
CCCNC(=O)C1CCN(Cc2cc3ccccc3n2Cc2ccccc2)CC1,"inconclusive [falling, single point]",
CCc1cccc(NC(=O)c2oc3ccc4c(c3c2C)C(=O)CC(C)(C)O4)c1,"inconclusive [falling, partial curve]",
COc1cccc(CNS(=O)(=O)c2ccc(-c3cc(C(F)(F)F)on3)s2)c1,"inconclusive [falling, partial curve, poor fit]",
CCOC(=O)c1ccc(N2C(=O)Cc3cc(OCC)c(OCC)cc3C2c2ccccc2)cc1 (centres undefined),"inconclusive [activator, single point]",
CCOC(=O)Cn1c(=O)n(-c2ccccc2OC)c2nc(-c3ccccc3F)nc(C(N)=O)c21,"inconclusive [falling, partial curve, poor fit]",
CCCN(C(=O)COc1cc(=O)n(CC)c2ccccc12)c1ccc(C(C)C)cc1,"inconclusive [falling, partial curve, poor fit]",
COc1ccc(NC(=O)Cn2c(=O)n(Cc3ccccc3Cl)c(=O)c3cc(OC)c(OC)cc32)cc1OC,,inactive: -5.63%
O=C1CC(c2cccc(O)c2)c2cc3c(cc2N1)OCO3 (centres undefined),"inconclusive [falling, partial curve, poor fit]",
CC(C)S(=O)(=O)c1oc(-c2cccs2)nc1S(=O)(=O)c1ccc(F)cc1,active: 0.585 µM,
Cc1ccc(NC(=O)c2c(C)oc3ccc(O)c(CN4CCCCCC4)c23)cc1,"inconclusive [falling, single point]",
